# According to the supplement of paper PMC11417369:
# ± gives the standard deviation of the averaged measurements. The list shows a part of the results.
# System: PfAP2-G AP2 domain (GST-tagged)
# Assay: gcPBM binding intensity (ln(normalized median fluorescence intensity)); higher = stronger DNA binding
# In short: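 Binding intensity is defined as the maximum Masliner-normalised natural-log median intensity across replicate spots for either probe orientation. It was measured on an Agilent 4 × 180k array of primer-extended double-stranded 36-bp intergenic genomic probes and negative controls, to which GST-tagged P. falciparum DNA-binding domains made in E. coli were applied for 1 h in 1× PBS with 1% milk, 0.2 mg/ml BSA, 0.5% salmon testes DNA and 0.03% Triton X-100. Detection was by Alexa488 anti-GST antibody and scanning at 488 nm.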
row,Sequence,gcPBM binding intensity (ln)
1,AACGTTCATAATTATTGTACCCTCATTTTATTTTTT [XGTACX_site503],11.2 ± 0.6
2,AAAAATTTTAATTAGGAACACACATATATATATATA [CACACA_site9016],10.2 ± 0.3
3,TTAATTAATTTTTCAGTGCAAATAAAAAATATTTAA,9.95 ± 0.23
4,CAAAAGTAAGCACGCACACACAACATGAAATAAACT [CACACA_site6223],10.29 ± 0.078
5,TATACGCAGAAACACACACACATACACCCACATACA [CACACA_site1723],10.5 ± 0.43
6,TATCTTATAAACTCTGCACACATAATATATTAAATG [CACACA_site8587],10.3 ± 0.18
7,TATATTAGAAAGGATACACACATATATATATATCTA [CACACA_site570],9.92 ± 0.13
8,TTAAACTTGAAACACACACACACACCGATATAAAAA [CACACA_site4578],10.2 ± 0.18
9,GATTACTAGAAATGCACACACTGATAAAATAAGGAA [CACACA_site6131],10 ± 0.13
10,TATATATATGAGTATACACACCTGATAAAGGTATAT [CACACA_site5462],10.1 ± 0.099
11,AGAAATATATCTATTTGTCCGTATATTCATATTTAT [XGTACX_site8427],10.8 ± 0.5
12,ATAAAAATATTGTCTAGTACATATTTATAATAAAAA [XGTACX_site7523],10.8 ± 0.35
13,AGATTGGAACATTAAAGTACTTACTTTTTTTTTTTT [XGTACX_site8017],11.2 ± 0.75
14,ATTTTGACATTATATAGTACATATAATTTACATTTA [XGTACX_site3024],10.8 ± 0.61
15,TATATATATATGTGTACACATTTGTCAGATTATATA [CACACA_site4813],11.6 ± 0.87
16,ATTTTTTTTTTTTTTTTTTTTGCACCATAAAATAAT [CACACA_negctrl_site1324],10.3 ± 0.38
17,TATATACTCAAACACACACACACATACACAGACATA [CACACA_site5025],10.4 ± 0.34
18,TCTTTATCTTCTTATACACACATTTATTAAAAAAAA [CACACA_site445],10.3 ± 0.37
19,TGACATAAAAAATATACACACTATAATATTTATACT [CACACA_site6776],9.76 ± 0.11

row,Sequence,gcPBM binding intensity (ln)
1,ATTTTTTAAAAAGTAACACACACTCTTATATATAAT [CACACA_site9206],10.19 ± 0.085
2,ATATATTTAAACAAAAGTACAAATCATAAATTCAAG [XGTACX_site3633],11.1 ± 0.77
3,TATATATTCTTTTAATGTACATATTGTATTATATCC [XGTACX_site4501],11.1 ± 0.54
4,GTTAACAAATAATGCACACAAATGGATAAAATTATA [CACACA_site3725],10.05 ± 0.014
5,TTAACCATTAATTCTCTACACACTTTTATTTTATTT [CACACA_site8522],9.9 ± 0.12
6,TATATAAGAATATATACACACATATATGTATATATA [CACACA_site2178],9.71 ± 0.11
7,TTTTACAATGAAATATGTACTTAAATGTCCAAATTC [XGTACX_site781],11.2 ± 0.84
8,AAAAAGAAAAATTGCACACACTTATAAAAATATACG [CACACA_site6074],10.2 ± 0.19
9,AATAAGTATACACATACACACACACCCAAAAAAAAA [CACACA_site8034],10.4 ± 0.38
10,CATTTTGTAAGATATGCACACATGGATCATATTTTA [CACACA_site423],10.16 ± 0.085
11,TTTTTTTTTATCAAATGTACATATATATAATAATAA [XGTACX_site3941],11.2 ± 0.76
12,TATTATTAATATGTATGGTTGTAATCTGTGTCTCCT [TGCATGCA_negctrl_site190],10.2 ± 0.15
13,AATATAATTTTTTATTGTACAAAAAAATTATTTAAT [XGTACX_site3248],10.9 ± 0.59
14,AAGAACAAATATGAGGTGCAACACAATATATTATTA [GTGCAC_site9965],9.945 ± 0.021
15,AGGCACAAAATTAAATGTACATATATATATATATAT [XGTACX_site3323],11 ± 0.6
16,ATGGGTATTAAGTGTACACATATAGTGTATTTTGTT [CACACA_site4452],11.6 ± 0.98
17,GTGTAAATATAATTAGTTTCACAAAACAAATATTTA [CACACA_negctrl_site717],9.84 ± 0.16
18,AAAAAAAAAAGACACACACACATATTTATTTATATA [CACACA_site6484],9.93 ± 0.042
19,AATATATAAGTGTTGTGTACTAAAGTATTTTCCTAT [XGTACX_site1622],11.3 ± 0.47

row,Sequence,gcPBM binding intensity (ln)
1,CATATACAGAAACACACACACACATAAATAAATATA [CACACA_site1343],10.1 ± 0.3
2,TTTAATTAAATATGTATATATATTCATGTATGTATA [GTGCAC_negctrl_site14],9.72 ± 0.085
3,AGTAGATATAAAAGGAGTACACATATATATATAAAT [XGTACX_site4375],11.6 ± 1
4,TGTTTTTGTGATCATATGAAAAAATTACCTACAAGG [CACACA_negctrl_site279],10.4 ± 0.4
5,TTTAATCAAATTAAAAGTACAGAATTGTTCATGTAG [XGTACX_site1229],11.5 ± 0.95
6,ATATATATATATTCCACACACACACTAATAAAAAAA [CACACA_site9214],10.2 ± 0.27
7,AAAAAATATTATATATGTACATAATATTTTTTTTTT [XGTACX_site5909],11.1 ± 0.59
8,ATAGTATCTGGTAGCTGTACGAGTCGTATAGTGCAG [XGTACX_site2542],11.3 ± 0.87
9,TTTCCGTATAATTTTGCACACGAATATAAATTTGAT [CACACA_site137],10.2 ± 0.11
10,ATAGTTTTACACATTTGTACATAATTTACAACAAAA [XGTACX_site25],10.9 ± 0.52
11,TAATTTAATAATTAGACACACATGTCTAAAATAAAA [CACACA_site2527],9.745 ± 0.035
12,AAAAGAAATTTGGGCACATGCGAATTTATAATTTAT [TGCATGCA_site960],10.4 ± 0.29
13,TAAAGTATTACAACCACACACACACCGATATATTAT [CACACA_site9382],10.19 ± 0.099
14,TTTTTTATATATATTTGTACATATTGCATGTTCCCT [XGTACX_site7143],10.8 ± 0.38
15,TGTCTTATATATATTACACACTATATGAAAAAATAT [CACACA_site1487],9.98 ± 0.17
16,TATATTTATCTGATAACACACATAAATTAGACATTT [CACACA_site6887],9.71 ± 0.028
17,TATATATATATATATACATGCATATTTTTTATTTTT [TGCATGCA_site464],9.8 ± 0.39
18,AATATGGTTATATATATATATATATATATATATATT [GTGCAC_negctrl_site566],9.67 ± 0.071
19,AAATAAAATACAAGTTGTACTATAAGCTTTTTATAT [XGTACX_site8021],11.1 ± 0.48
